This assay addresses CD40 (UniProt P25942). The assay is described as follows: cell-based or functional assay.
Chain of UniProt P25942 (P25942 21-277 limits assumed): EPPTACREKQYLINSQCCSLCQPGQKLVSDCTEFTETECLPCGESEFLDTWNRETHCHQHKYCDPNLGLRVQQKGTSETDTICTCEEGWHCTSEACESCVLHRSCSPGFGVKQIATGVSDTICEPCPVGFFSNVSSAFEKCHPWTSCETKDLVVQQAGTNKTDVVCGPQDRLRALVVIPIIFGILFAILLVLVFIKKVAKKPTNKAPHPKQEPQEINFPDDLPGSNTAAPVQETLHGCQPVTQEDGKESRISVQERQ

B1: OT-001685 (Met; FKBP (M1del, F37V, L107P); Flexible G/S rich linker; MH Linker; CD40L; stop) (ligand)
chain: [sequence of about 100 residues not given]GSMHMIETYNQTSPRSAATGLPISMKIFMYLLTVFLITQMIGSALFAVYLHRRLDKIEDERNLHEDFVFMKTIQRCNTGERSLSLLNCEEIKSQFEGFVKDIMLNKEETKKENSFEMQKGDQNPQIAAHVISEASSKTTSVLQWAEKGYYTMSNNLVTLENGKQLTVKRQGLYYIYAQVTFCSNREASSQAPFIASLCLKSPGRFERILLRAANTHSSAKPCGQQSIHLGGVFELQPGASVFVNVTDPSQVSHGTGFTSFGLLKL
B1: the SEAP reporter of HEK-Blue CD40 cells co-cultured 24 hours with transduced Jurkat cells plus 1 µM Shield-1, given as Soluble CD40L (pg/ml) against a recombinant soluble CD40L standard worked out at 4830 pg/mL.

Source of the values: US20220175781A1, “CD40L COMPOSITIONS AND METHODS FOR TUNABLE REGULATION” (Obsidian Therapeutics, Inc., priority 2019, published 2022).
